Laboratory results taken from the supplement of paper PMC3334620.
Whole data set: some 33,000 sequences, median “E-score (-0.5 to 0.5)” near -0.021, cut for the highest 2% near 0.32. Some of the results follow.

target: T1, Zap1 (UniProt P47043); assay: PBM E-score (8-mer binding enrichment) (E-score (-0.5 to 0.5)); higher = stronger / more preferred TF binding; most listed sequences are background and not binding sites; details: protein concentration: 200 nM; construct: GST-full length
T1 sequence: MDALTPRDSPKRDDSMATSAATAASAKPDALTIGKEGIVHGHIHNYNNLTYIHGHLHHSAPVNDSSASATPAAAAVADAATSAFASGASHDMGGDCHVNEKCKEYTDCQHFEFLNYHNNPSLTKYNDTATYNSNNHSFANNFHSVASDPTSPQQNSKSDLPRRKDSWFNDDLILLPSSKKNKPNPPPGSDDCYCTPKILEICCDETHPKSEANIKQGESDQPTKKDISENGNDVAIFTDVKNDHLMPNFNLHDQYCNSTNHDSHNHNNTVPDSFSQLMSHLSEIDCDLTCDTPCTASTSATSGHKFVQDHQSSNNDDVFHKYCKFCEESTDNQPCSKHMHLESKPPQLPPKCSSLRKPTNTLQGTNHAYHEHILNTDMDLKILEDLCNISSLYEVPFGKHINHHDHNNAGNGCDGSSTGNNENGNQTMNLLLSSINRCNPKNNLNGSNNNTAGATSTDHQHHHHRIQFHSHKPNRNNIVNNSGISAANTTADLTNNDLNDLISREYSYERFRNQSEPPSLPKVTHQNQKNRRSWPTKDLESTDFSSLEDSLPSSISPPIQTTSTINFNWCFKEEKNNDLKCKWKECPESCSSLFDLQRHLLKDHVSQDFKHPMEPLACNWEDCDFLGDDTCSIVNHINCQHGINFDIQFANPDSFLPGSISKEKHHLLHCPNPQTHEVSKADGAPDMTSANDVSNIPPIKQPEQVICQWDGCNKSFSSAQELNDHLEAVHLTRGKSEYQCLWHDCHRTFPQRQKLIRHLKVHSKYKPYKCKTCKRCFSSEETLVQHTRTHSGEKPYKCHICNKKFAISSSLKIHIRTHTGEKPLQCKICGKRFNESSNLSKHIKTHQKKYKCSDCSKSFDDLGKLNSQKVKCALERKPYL
How it was run: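 GST-tagged yeast TFs (full-length or DNA-binding domain) were made by PURExpress in vitro transcription/translation and applied at about 100-200 nM to universal all-10-mer Agilent arrays. The arrays were made double-stranded by primer extension, on fresh or once-stripped slides. Bound protein was detected with fluorescent anti-GST, and scans were normalised with masliner. Each ungapped eight-base word, pooled with its reverse complement, received an E-score (modified Wilcoxon-Mann-Whitney statistic) from the Universal PBM Analysis Suite.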

Row | Sequence | PBM E-score
1 | CTGCAAAA | 0.0874
2 | AACGCGAT | -0.111
3 | ATTAGAAT | 0.0647
4 | ACGCATTG | -0.234
5 | ATTACAGC | -0.0895
6 | AAAAGATG | -0.0197
7 | CAGAACCA | 0.213
8 | CCGAGATC | -0.072
9 | GATCGTAA | 0.0242
10 | CAAGGTTC | 0.0224
11 | CCCAACTC | 0.0123
12 | AAAACCTT | 0.221
13 | GACAAGAA | 0.103
14 | GACGTCGC | -0.221
15 | CATGGGCC | 0.0373
16 | ATATCGGC | -0.0164
17 | CTATCCTC | -0.137
18 | TACCAGTA | 0.2
19 | GGAAGTAC | -0.00414
20 | GTGCTGAA | -0.117
21 | GTCCCGAC | -0.0287
22 | ACCGACGA | -0.0704
23 | CATTAGGA | 0.0839
24 | GGGTGGAA | -0.0836
25 | GGTCGTAC | 0.0525

Row | Sequence | PBM E-score
26 | TATTAAAA | 0.228
27 | GAAGACTC | -0.244
28 | ACCGCGGT | 0.237
29 | ATATATCC | 0.124
30 | CCCTTCCG | 0.0394
31 | AGGTAGAT | 0.0029
32 | ACTAGAGT | -0.0234
33 | AACAGTAA | 0.0691
34 | AATCTGCG | -0.0617
35 | CCCTTTAC | 0.162
36 | AAAAAGTA | 0.212
37 | ACAGCTCT | -0.299
38 | ACTGTTAA | 0.0957
39 | CTCTAGAG | 0.11
40 | GATGACAC | -0.0243
41 | CAACGATG | -0.154
42 | ACGCCCGC | -0.208
43 | AACTTTCG | 0.0752
44 | AATGGATA | -0.0177
45 | CCCTCTGA | 0.0399
46 | GTCTGTCA | -0.05
47 | AGGAAAAG | 0.113
48 | GTTCAGCA | -0.0152
49 | CATCGTCA | 0.048
50 | GTGGGCCA | 0.0829

Row | Sequence | PBM E-score
51 | ATCGAGGC | -0.221
52 | AAAGGAGT | -0.103
53 | ACCTGGTG | 0.0112
54 | AATCGCGG | -0.0922
55 | GGTCCAAC | 0.0862
56 | GATGTACA | 0.0332
57 | CGTCAGGA | -0.0678
58 | GACTGAAC | -0.199
59 | CACCTGCC | -0.102
60 | AGATGTAT | -0.11
61 | ACAGAATC | -0.112
62 | TATATTAA | 0.257
63 | ACTGCGAC | 0.0296
64 | CTAGGTAA | 0.0356
65 | TAACTCGA | 0.287
66 | CAGTAGCG | -0.113
67 | AACTTGTC | -0.0387
68 | ACCGCTAG | 0.0126
69 | AAACGAGG | 0.112
70 | ACACGTGA | -0.0213
71 | CGAATAAC | 0.211
72 | ACCGAGGT | 0.215
73 | GAGCCAGC | -0.327
74 | GTGTTCAA | -0.00542
75 | CCTCACCG | -0.121

Row | Sequence | PBM E-score
76 | CCCCCGAC | -0.212
77 | AAAGCGGC | -0.0427
78 | CGAAGTTA | 0.0274
79 | CTCTCTTA | -0.193
80 | AGTGCTCA | -0.212
81 | ACTTTAAA | 0.131
82 | AGACGTGG | -0.252
83 | CAAGCTCA | -0.197
84 | AGCGGTGG | -0.0938
85 | CGATTATA | 0.00501
86 | AAGTCCTC | -0.114
87 | AATCCTGT | 0.0442
88 | CTTATGAC | 0.133
89 | GAATTCGA | -0.0698
90 | CGTTATTC | -0.0367
91 | GCTGAGAA | -0.156
92 | AGCATGTA | -0.194
93 | GGTATACC | 0.263
94 | CACCGAGC | -0.0907
95 | CCATGCAC | -0.157
96 | AGTGTTCC | 0.0611
97 | GGGGACCA | -0.159
98 | ACTTTTCC | 0.0611
99 | ATAGAGAG | -0.325
100 | TGTTGCAA | 0.151

Row | Sequence | PBM E-score
101 | TATGAGCA | -0.234
102 | GAGCGGCA | -0.264
103 | CAAGCCCC | -0.085
104 | ATATAAAT | 0.147
105 | CAGTGACA | -0.128
106 | AACCCAAA | 0.35
107 | ACTAGCTG | -0.214
108 | CCCGCGAC | 0.0273
109 | AGTTAGCG | 0.0959
110 | CACTTAGA | 0.0224
111 | CGTTACAA | 0.121
112 | GTAACAGA | 0.251
113 | GGACTCAA | -0.109
114 | ATAACGAG | -0.0457
115 | GGAACGCA | -0.102
116 | TGATTGAA | 0.154
117 | CATGTTTC | 0.193
118 | CTCGTAAA | -0.00604
119 | AGGCCCGA | -0.248
120 | ATTTATCA | 0.0928
121 | ACGAAAGA | -0.0795
122 | ATGACGCG | -0.123
123 | CTCACTTA | -0.119
124 | AACTGTCC | -0.135
125 | CACGTGGA | 0.0481

Row | Sequence | PBM E-score
126 | CGCCCTAG | -0.00248
127 | TTGAACAA | -0.0174
128 | AAAGTGTA | -0.0268
129 | TCGCTTAA | -0.0306
130 | AGACCGTA | -0.0329
131 | CAAGGATC | 0.0812
132 | CCCGGCAG | -0.1
133 | ATGCGTGG | -0.122
134 | ACTAGATC | -0.115
135 | GACCTCGA | 0.277
136 | ACCTAACG | -0.0112
137 | ATCTAAGG | -0.0157
138 | ATCCGTGA | 0.0221
139 | ACATCTCA | -0.0391
140 | ATTACCAG | 0.0782
141 | ACGGGTCC | 0.235
142 | TTCTAGAA | 0.117
143 | ACAACTGG | 0.0472
144 | ATAAGACG | -0.141
145 | TATCCTGA | 0.0914
146 | ACCGCGCG | 0.252
147 | GATATCCA | 0.0606
148 | ATCAAAAA | 0.114
149 | CGTGACTC | -0.224
150 | CGTCACAC | -0.237

Row | Sequence | PBM E-score
151 | CAGCAGGG | 0.0778
152 | CCCTCCAC | 0.0534
153 | AACATTAG | -0.0851
154 | TACAAAAA | 0.224
155 | CAGACGGC | -0.198
156 | GCACAGGC | -0.26
157 | CGGGCCGC | -0.0922
158 | AGCAGGCG | -0.133
159 | GACGTTGA | -0.148
160 | CCCCGACA | 0.00221
161 | AATTCCGT | -0.0101
162 | CCTCACGC | -0.0248
163 | ACGTACCT | -0.126
164 | TGAGCACA | -0.186
165 | CAATTCAC | 0.0154
166 | ACGCATGA | -0.231
167 | CGGTGCAA | 0.0851
168 | TGCCGCAA | 0.135
169 | ACCAAGTC | 0.0417
170 | CTCACCAG | 0.0211
171 | TATGAGAA | 0.00136
172 | AGGAACAT | 0.00486
